Assay results: the supplement of paper PMC3334620
Over roughly 33,000 sequences, “E-score (-0.5 to 0.5)” has its median near -0.043; the highest 2% begin near 0.37. The list shows a part of the results.

Target: T1, Upc2 (UniProt Q12151)
T1 sequence: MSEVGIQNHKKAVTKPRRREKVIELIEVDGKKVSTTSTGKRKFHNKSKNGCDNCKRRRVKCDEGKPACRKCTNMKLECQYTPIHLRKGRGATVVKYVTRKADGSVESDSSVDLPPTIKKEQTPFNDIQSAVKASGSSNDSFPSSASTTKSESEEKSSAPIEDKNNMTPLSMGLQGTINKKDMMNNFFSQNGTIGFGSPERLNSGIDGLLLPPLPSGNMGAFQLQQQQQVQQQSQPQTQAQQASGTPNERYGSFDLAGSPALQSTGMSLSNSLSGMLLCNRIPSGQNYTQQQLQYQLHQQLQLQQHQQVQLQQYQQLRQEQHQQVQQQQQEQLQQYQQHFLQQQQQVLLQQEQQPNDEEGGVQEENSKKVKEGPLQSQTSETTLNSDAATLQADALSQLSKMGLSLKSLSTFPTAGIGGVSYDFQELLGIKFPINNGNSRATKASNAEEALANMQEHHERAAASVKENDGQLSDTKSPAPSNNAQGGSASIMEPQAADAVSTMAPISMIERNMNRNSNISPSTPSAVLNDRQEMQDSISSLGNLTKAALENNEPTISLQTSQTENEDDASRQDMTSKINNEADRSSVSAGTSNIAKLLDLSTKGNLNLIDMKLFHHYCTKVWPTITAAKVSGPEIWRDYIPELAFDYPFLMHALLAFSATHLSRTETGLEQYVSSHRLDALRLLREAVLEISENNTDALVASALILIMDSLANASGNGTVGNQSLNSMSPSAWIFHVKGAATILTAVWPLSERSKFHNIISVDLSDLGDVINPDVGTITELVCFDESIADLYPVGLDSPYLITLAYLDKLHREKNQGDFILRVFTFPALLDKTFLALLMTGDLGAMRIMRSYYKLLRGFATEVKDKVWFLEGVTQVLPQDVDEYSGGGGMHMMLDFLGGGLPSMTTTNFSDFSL
Test: PBM E-score (8-mer binding enrichment) (E-score (-0.5 to 0.5)); higher = stronger / more preferred TF binding; most listed sequences are background and not binding sites
Conditions: protein concentration: 200 nM; construct: GST-full length
How it was run: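 Full-length yeast transcription factors or their DNA-binding domains, GST-tagged and expressed with PURExpress, were applied at about 100-200 nM to universal all-10-mer Agilent arrays. These arrays had been made double-stranded by primer extension on fresh or once-stripped slides. Detection used fluorescent anti-GST, normalisation used masliner, and E-scores for ungapped eight-base words pooled with reverse complements came from the Universal PBM Analysis Suite.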

Sequence	PBM E-score
CGTATACC	0.472
CTTCCCTC	-0.113
ACCTCCCT	-0.0856
ACGCCACA	-0.0305
CGGCATCC	-0.0064
AAGCAGGT	-0.185
ACCGGAGC	-0.234
CGAATACG	0.356
CAACCTCG	0.196
GCCTGACA	-0.273
CTATCTAC	-0.0129
TACCAACA	-0.0541
TCTGTGCA	-0.191
TGGAGAAA	-0.186
CCAATCTA	-0.0225
AATCCCGC	-0.0423
AGTAAGTC	-0.0547
ACCCGGAT	-0.0814
ACACGGCG	-0.0227
CGGACCAG	0.0553
CAAAGCGC	-0.0826
ATGAATGG	-0.164
CGCAATTC	0.0807
ACGCGTAA	0.237
AGGCTCAA	-0.335

Sequence	PBM E-score
AACCTCAT	-0.154
GCAACAGA	-0.121
ATCCCGCC	-0.0625
ACCACAGG	-0.203
GGCTATAA	0.0327
AGATAGAT	-0.184
ATCCTTAG	-0.132
ATCTCACG	0.0026
CAAAAGGC	-0.132
TTAAACAA	-0.0742
CATCCGGG	-0.139
CATTTTCC	0.0262
GGCACGCC	-0.19
AATGAACA	0.00069
CGGCCACA	-0.173
GCATGCTA	-0.083
ACGACCCA	0.283
ATGTATAC	0.263
CATTGATC	-0.0522
GAACTTTA	-0.0462
CGGGCCTA	-0.18
GACGAGCC	-0.00056
CTGATGCC	-0.0983
CTTTCTCC	-0.0597
CTAATCAC	-0.0142

Sequence	PBM E-score
ACTACATA	-0.225
AACCGCAA	-0.0323
GTCTCTAA	-0.0818
CCAAAGCC	-0.0521
CCGTCTAG	-0.196
ACACAGTC	0.00912
CTCATGGC	-0.168
TAGCTATA	0.05
GCCCTAAC	-0.211
AAGGACTG	-0.192
GTTCCCGA	0.257
CAGCACCC	-0.163
GCTGGCAC	-0.278
ATTTGTCC	-0.0368
ATCAAGAG	-0.0343
CTCACCAA	0.00156
ACGTGCGA	0.106
ATGGAATC	0.0787
ATTGGACC	-0.161
ATCGGAAT	0.0354
CCTCTGGA	-0.117
ACATAAGG	0.0292
GCCTGTCA	-0.217
GGACGGTA	-0.121
AGGACGAT	0.0383

Sequence	PBM E-score
AGGAACCG	0.102
CACGCGAC	-0.00138
CGCGCATA	0.0804
GGTTACTA	-0.0998
AACACATC	0.115
ATCCGACG	0.176
AGAGCGCT	-0.231
AACTGACG	-0.116
CCGTTCGC	0.201
AGTTGAAG	-0.0772
CCGCAGCC	-0.0849
CACATAAC	-0.00287
ACACCCTA	0.0638
AAGCAACC	-0.017
TAAGGCTA	0.0758
AAGAGATT	-0.125
GCGACGAA	0.216
ACGTAAAA	0.268
CCTTTAAA	0.0101
AAGCAATG	-0.133
CCCTTGTC	-0.172
GGAGATAA	-0.021
ATAGTGCC	0.0198
CCGCACGC	-0.0864
ACCTTACA	-0.171

Sequence	PBM E-score
CCTTTTGC	-0.11
ACTTTAAG	-0.0539
ACGCCTGC	-0.215
GCATCCGC	-0.0671
AGGATCCC	-0.108
GCTCCTAA	-0.179
ACACGCAG	0.0737
GGGATAAA	0.0749
GGTCAAAC	0.21
CCCTCGCA	0.125
GCAACTGA	0.0086
GCTCAGAA	-0.0808
GTCGGAAC	0.00455
CGGCGTAA	0.214
CTCATACA	-0.0251
AATTCCAA	-0.134
CTTCCAGA	-0.028
AAACAGAA	-0.115
CCTCACTA	-0.191
ATCGGCCC	-0.113
TATTAGGA	0.104
GACATGCA	0.00181
ATGGGTCG	-0.0132
GTCGCATA	0.375
CGACAGCA	0.067

Sequence	PBM E-score
GCATGTGA	-0.048
AGATACAG	0.0201
GATCTCGA	-0.0418
ACTGGCAG	-0.183
AGGCCTTC	0.00522
CGACCTTC	0.073
ACCTGAGT	-0.0104
ATTACTTC	0.0331
CCTTTGGA	-0.188
CACTCACC	-0.171
AAGGCTCT	-0.314
AGTCCCCC	-0.307
AGAAGAAT	-0.182
ATGTCCCC	-0.08
AGTCTCGG	0.0764
ATGGCATA	0.145
AGCCCATG	-0.143
CTTATATC	-0.0716
AGGATAGA	-0.212
CCTAATCA	-0.0746
AGATCCCC	-0.1
CTCTTAAA	0.203
ACTGGATC	-0.204
ATACTGCA	0.0601
CGCCACTC	-0.0892

Sequence	PBM E-score
CAGATCAG	-0.106
CGACTATA	0.167
CTATCCAC	-0.102
AGCCCTAA	-0.191
ACACACGA	0.187
AGAGAAAT	0.0721
AAACGTGG	0.255
GAGGTGCA	-0.0499
AAAGCGCC	-0.116
CGTTCCTA	0.302
AAATGAAT	-0.131
AGATAATA	0.0225
CTCTTGCA	-0.139
TAATGGCA	-0.0754
ATCTCACC	-0.184
ACCTTGAC	-0.26
ACATCCTC	0.0612
ACCATGAT	-0.12
CTAGTCAA	-0.105
GGGTAGAC	-0.141
CGGCCAAG	-0.145
TTGGCAAA	0.00835
GCTCAAGA	-0.206
CTGTATTC	0.0741
GGTGTGTA	0.0581

Sequence	PBM E-score
CCGAATCC	0.141
CCGATGAG	-0.191
CCATTGCC	-0.162
CGCTCGCC	0.0259
AGTCTCCA	-0.0495
CTCCGCGA	-0.101
CAGGACGG	-0.164
ACAGTGCT	0.141
ATCTCAAT	0.108
ACGCTAAT	0.12
TAACCTTA	-0.166
AATATACA	0.0677
GGTGGTGA	0.0398
CGTGTTCA	-0.00782
ATTTAAAC	0.241
AGTCACTG	-0.0748
CTCCTTAA	-0.22
GGCTGGAC	-0.11
ACGAACTC	0.325
ATATGTCG	0.152
GCCAGCGA	-0.219
AGACCACT	-0.0709
AATAAGTC	-0.164
AACTTATT	0.0645
AACGGTTA	0.319

Sequence	PBM E-score
ACACTAGC	-0.181
AACAGAGA	-0.236
ATGGGGCC	-0.349
CTATGTTC	-0.00082
AATAGTAT	0.0304
CAATGAAG	-0.0741
CCATCAAC	0.0474
CACTTCGC	0.0178
GCCTGTAC	0.222
CCGGCTCG	0.0536
CGACGAGA	0.0503
CATGAAAA	-0.0249
GGGAACCC	-0.0648
AACTGTAG	-0.127
AAGTATCC	0.128
CGGACACG	0.227
AAATACAA	0.208
CGGGGGTC	-0.15
CACAACCA	-0.063
